Results reported in PubChem BioAssay AID652104 (National Center for Advancing Translational Sciences (NCATS), 2013).
About 7,200 (1.8%) of roughly 410,000 compounds were called active. Inconclusive means that the source gave no clear call. Such entries were picked first, then a sample of the others. Calls come from the whole dose curve; as a rule, active = well fitted activation curve with a large enough effect; inconclusive = small, poorly fitted or top-dose-only effect, or another doubt; inactive = no such curve, though single readings can be large or run the other way. Where the call is inconclusive, the potency comes from a doubtful curve fit.

assay: qHTS of TDP-43 Inhibitors; settings: TDP-43 expressing yeast growth rescue, BacTiter-Glo, 24 h; growth rescue (activation): at 46.1 µM (top of the series) unless noted; note: nearly all actives have a fitted effect of over 50% in size; for growth rescue (activation): % of control where 0% means no effect
Method in brief: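 Readout is BacTiter-Glo luminescence of cell growth, so inhibitors register as activators. TDP-43-expressing yeast at OD600=0.02 in galactose medium, after raffinose pregrowth to mid-log, were incubated with compound for 24 hr at 30 deg C.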
Potency is the fitted concentration of half-maximal effect; tags give direction and shape of the fitted curve.

Growth rescue (activation), inconclusive:
O=C(O)c1cccc(NC(=O)c2ccc3c(c2)C(=O)N(c2ccccc2)C3=O)c1 -41% [activator]

Growth rescue (activation), inactive:
CC(C)CCNC(=O)c1ccc(C2SCC(=O)N2Cc2ccco2)cc1 (stereo not given) 21%, COc1cc2c(-c3cc(Br)ccc3O)nc3c(c(C)nn3-c3ccccc3)c2cc1OC 8.95%, COc1cccc(Cn2c(CNS(=O)(=O)c3ccc(C(C)(C)C)cc3)nc3cccnc32)c1 -7.53%, c1cncc(-c2nnc(-c3cccs3)o2)c1 -0.799%, C[n+]1c(/C=C/c2ccc3c(c2)OCO3)ccc2ccccc21 -11.6% [at 9.22 µM], COc1ccc2c(C)c(CCC(=O)NCc3ccc(Cl)cc3)c(=O)oc2c1C -3.97%, CC(NC(=O)CCSc1nc(-c2ccc3c(c2)OCO3)cc(C(F)(F)F)n1)c1ccccc1 (stereo not given) -8.02%, c1ccc(-n2cnc3cc(NCc4ccccn4)ccc32)cc1 -0.591%, COc1ccccc1N1CCN(C(=O)CSc2n[nH]c(-c3ccccc3Cl)n2)CC1 24.5%, CCc1ccc(S(=O)(=O)Nc2ccc(-c3ccc(N4CCCC4)nn3)cc2)cc1 8.82%, CC(=O)N1CCc2c(sc3c2c(=O)n(CCc2ccccc2)c(=O)n3CC(=O)Nc2ccc(C)c(F)c2)C1 6.81%, Cc1ccc(CCNC(=O)c2ccc3c(c2)N(Cc2ccccc2)C(=O)c2ccccc2S3=O)cc1 (stereo not given) -2.38%, COc1ccc(N2CCN(c3ncnc4onc(-c5ccc(F)cc5)c34)CC2)cc1 4.65% [at 9.22 µM], COc1ccc(S(=O)(=O)NC(CC(=O)NC2CCCC2)c2ccco2)cc1 (stereo not given) 10.3%, CC(=O)c1ccc(N2CCN(C(=O)CCCCn3c(=O)[nH]c4ccccc4c3=O)CC2)cc1 -4.96% [at 9.22 µM], NC(=O)C1(N2CCCCC2)CCN(C(=O)Nc2ccc(F)cc2)CC1 8.36%, CCOC(=O)Cc1ccc(Nc2nc(NCc3ccccc3)nc3ccsc23)cc1 21.6%, O=C(Nc1c(-c2ccccc2)nc2ccccn12)c1cccc(F)c1 -20.6%, COc1cccc(OC)c1C(=O)Nc1cccc(-c2cn3ccsc3n2)c1 8.92%

Potency, active:
CCCCN1C(=O)C2(OCCCO2)c2cccc(C)c21 20 µM, CC(O)(c1ccccc1)c1nc(-c2cccc(C#N)c2)cs1 (stereo not given) 20 µM, COc1cccc(C(=O)OCC(=O)c2ccc(Br)s2)c1OC 1.78 µM, O=c1oc(CCO)cc2ccc(C#Cc3ccsc3)cc12 17.8 µM

Potency, inconclusive:
O=C(C1CCC1)N1CCc2cc(S(=O)(=O)N3CCN(c4ccccc4)CC3)ccc21 6.31 µM [activator, full curve, poor fit], Cc1cc(C)c2c(N)c(C(=O)NCC3CCCCC3)sc2n1 10 µM [activator, partial curve], Clc1ccc(-c2nc3ccc(Cl)cn3c2Cc2ccsc2)cc1 35.5 µM [activator, single point], Cc1ccc(NC(=O)c2sc(Cl)nc2C)c(C)c1 11.2 µM [activator, partial curve], COc1ccccc1NC(=O)Nc1ccccc1Br 20 µM [activator, partial curve], O=C(N/C=C/c1ccco1)OCc1ccccc1 7.08 µM [activator, single point], COc1ccccc1C(=O)Nn1c(-c2cccs2)nc2ccccc2c1=O 15.8 µM [activator, partial curve], C=CCCCCCCCCC(=O)Nc1ncccn1 11.2 µM [activator, partial curve], Cc1ccc(C(=O)N2CCN(Cc3nc4sc5c(c4c(=O)[nH]3)CCCC5)CC2)cc1 5.62 µM [activator, single point], COc1cc2sc3cc(NCc4ccc(C)o4)ccc3c(=O)c2cc1OC 11.2 µM [activator, partial curve], Cn1c(O)c(N=NC(=O)C2COc3ccccc3O2)c2ccccc21 (stereo not given) 25.1 µM [activator, single point], O=C(N/N=C/c1ccc([N+](=O)[O-])o1)C1CCCC1 15.8 µM [activator, partial curve], CCOc1ccc(C(=O)NCC(c2ccco2)S(=O)(=O)c2cccs2)cc1 (stereo not given) 20 µM [activator, partial curve, poor fit], O=C(COC(=O)c1ccc2c(c1)OCO2)NCc1ccc2c(c1)OCO2 2.24 µM [activator, partial curve], COC1(C2=NCCN2)COc2ccccc2O1 (stereo not given) 25.1 µM [activator, partial curve], COc1ccc(-c2cc(NC=O)c3ncc(-c4ccccc4)n3c2)cc1OC 35.5 µM [activator, single point], O=C(CSc1nccc(-c2cccs2)n1)Nc1ccc(F)c(Cl)c1 10 µM [activator, partial curve], Cc1ccc2onc(CNC(=O)Nc3cc(F)ccc3F)c2c1 35.5 µM [activator, partial curve], COc1cc(OC)cc(C(=O)NNC(=O)c2ccc3ccccc3n2)c1 35.5 µM [activator, single point], Cc1cccc(NC(=O)c2ccc(F)c(S(=O)(=O)N3CCC4(CC3)OCCO4)c2)c1 35.5 µM [activator, partial curve], Fc1cccc(Cl)c1Cn1c(-c2cccs2)nc2ccccc21 35.5 µM [activator, single point], CCOC(=O)C1CCCN(S(=O)(=O)c2ccc(OC)c3ccccc23)C1 (stereo not given) 31.6 µM [activator, single point], COc1ccccc1OCC(=O)NCC1CCCN(C(=O)c2ccccc2SC)C1 (stereo not given) 28.2 µM [activator, single point], COCC(=O)Nc1sc2c(c1C(=O)OC)CCC(C)C2 (stereo not given) 28.2 µM [activator, partial curve], Cc1cccc(-n2ncc3c(N4CCC(C)CC4)ncnc32)c1 35.5 µM [activator, single point], Cc1cc(C)cc(NC(=O)CCCn2c3ccccc3c(=O)c3ccccc32)c1 3.55 µM [activator, partial curve], CCOc1cccc(NC(=O)CSc2ncc(-c3ccccc3)[nH]2)c1 3.16 µM [activator, partial curve], CCCNC(=O)c1ccc2c(c1)sc1nc(-c3ccc(C)cc3)cn12 35.5 µM [activator, partial curve], COC(=O)C1CCN(C(=O)c2sc3nc(-c4ccc(F)cc4)cn3c2C)CC1 35.5 µM [activator, partial curve], Cc1cc(C)cc(NC(=S)NCCc2c[nH]c3ccccc23)c1 25.1 µM [activator, single point], COc1ccccc1OCC(=O)NCCC1=CCCCC1 17.8 µM [activator, partial curve], COc1ccc(-c2nc3c(c(SCC(=O)Nc4ccccc4F)n2)Cc2cc(C)ccc2O3)cc1 0.316 µM [activator, full curve, poor fit], C=CCNc1nc(-c2cccc(OC)c2O)nc2ccccc12 5.01 µM [activator, full curve, poor fit], CCOC(=O)[C@]12CCC=C1N(Cc1ccco1)C(=O)[C@H](CC(=O)NCc1cccc3ccccc13)C2 6.31 µM [activator, partial curve], COc1ccc(C(=O)OCC(=O)c2ccc(F)cc2)cc1OC 35.5 µM [activator, single point], c1cn2c(-c3ccc(N4CCOCC4)cc3)cncc2n1 2.51 µM [activator, full curve, poor fit], COc1ccc(Cl)cc1NC(=O)CNc1ccc(F)cc1C 12.6 µM [activator, partial curve], COc1ccc(-c2nnc(SCC(=O)NC3CCCC3)nc2-c2ccc(OC)c(OC)c2)cc1OC 0.355 µM [activator, full curve, poor fit], CCSc1nnc(NC(=O)c2nn(C(C)C)c(=O)c3ccccc23)s1 35.5 µM [activator, partial curve], CC1N(C)c2cccc3cccc(c23)N1C 6.31 µM [activator, partial curve], CSc1nc(-c2ccccc2)nc(N2CCOCC2)c1C(C)=O 15.8 µM [activator, single point], Cc1ccc(-c2ccc(C3=CC(=O)CC(C)(C)C3=O)cc2)cc1 1.58 µM [activator, partial curve], Cc1ccc(NC(=O)C2(c3ccccc3)CC2(Cl)Cl)cc1C (stereo not given) 17.8 µM [activator, partial curve], CC(=O)C(Sc1nn(C)c(=S)s1)C(=O)Nc1ccccc1 (stereo not given) 17.8 µM [activator, partial curve], Cc1nc2nc(SCC(=O)NC3CCC(C)CC3)nn2c(C)c1Cc1ccccc1 (stereo not given) 15.8 µM [activator, partial curve], CCOc1ccc(CCNC(=O)c2sc3ncccc3c2-n2cccc2)cc1OCC 35.5 µM [activator, partial curve]
